Assay results published in the supplement of paper PMC3334620.
In all, about 33,000 sequences were measured (“E-score (-0.5 to 0.5)”: median about -0.035, highest 2% from about 0.35 on). Some of the results follow.

Biological target: T1, Pdr3 (UniProt P33200)
T1 sequence: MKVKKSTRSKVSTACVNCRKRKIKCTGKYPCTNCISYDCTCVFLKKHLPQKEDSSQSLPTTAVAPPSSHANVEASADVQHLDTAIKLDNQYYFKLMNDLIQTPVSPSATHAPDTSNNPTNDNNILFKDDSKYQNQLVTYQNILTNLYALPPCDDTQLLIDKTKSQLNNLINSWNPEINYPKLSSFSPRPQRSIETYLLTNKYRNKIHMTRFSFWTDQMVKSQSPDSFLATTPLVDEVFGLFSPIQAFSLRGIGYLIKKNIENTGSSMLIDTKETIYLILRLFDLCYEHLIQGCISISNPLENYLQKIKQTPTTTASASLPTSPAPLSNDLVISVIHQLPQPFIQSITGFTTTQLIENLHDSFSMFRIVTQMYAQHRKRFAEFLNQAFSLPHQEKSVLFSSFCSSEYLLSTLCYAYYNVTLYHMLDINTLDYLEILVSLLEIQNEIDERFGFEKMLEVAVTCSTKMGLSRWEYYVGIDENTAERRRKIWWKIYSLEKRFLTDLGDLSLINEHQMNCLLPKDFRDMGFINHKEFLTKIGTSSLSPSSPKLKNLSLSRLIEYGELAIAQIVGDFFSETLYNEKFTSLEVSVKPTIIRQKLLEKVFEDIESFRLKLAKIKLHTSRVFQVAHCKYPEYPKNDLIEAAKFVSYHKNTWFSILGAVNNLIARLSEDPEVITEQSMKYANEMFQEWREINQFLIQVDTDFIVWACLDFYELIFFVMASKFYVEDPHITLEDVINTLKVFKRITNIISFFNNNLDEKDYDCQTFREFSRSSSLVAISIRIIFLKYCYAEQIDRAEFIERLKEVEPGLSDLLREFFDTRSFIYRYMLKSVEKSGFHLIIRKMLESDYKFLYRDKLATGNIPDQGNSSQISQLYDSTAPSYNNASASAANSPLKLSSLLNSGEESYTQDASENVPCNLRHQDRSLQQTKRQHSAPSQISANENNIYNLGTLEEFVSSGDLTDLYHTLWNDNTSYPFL
Test: PBM E-score (8-mer binding enrichment) (E-score (-0.5 to 0.5)); higher = stronger / more preferred TF binding; most listed sequences are background and not binding sites
Conditions: protein concentration: 200 nM; construct: GST-full length
In short: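 Universal all-10-mer Agilent arrays, double-stranded by primer extension on fresh or once-stripped slides, were probed with about 100-200 nM GST-tagged yeast transcription factors made by PURExpress. Fluorescent anti-GST detected bound protein, and masliner normalised the scans. E-scores from the Universal PBM Analysis Suite were given to each ungapped eight-base word pooled with its reverse complement.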

| Sequence | PBM E-score |
| --- | --- |
| CCGCGCAG | 0.278 |
| GGGCCACA | -0.068 |
| ATTCGCGC | 0.113 |
| CCGTCGTC | 0.128 |
| CAGACGAG | -0.165 |
| CGCTTAAC | 0.0421 |
| AGAAGCCC | -0.00976 |
| CATAGGTC | -0.0905 |
| GGGCCCCA | 0.092 |
| CAAGTACG | -0.0802 |
| ATCCTGCA | -0.139 |
| AGTCCTCA | -0.023 |
| CGCAGACG | 0.0826 |
| GACCGATC | 0.134 |
| ATTGAATG | 0.0761 |
| AAGGTCCA | 0.00467 |
| GTGTTGAA | -0.157 |
| AAAGCTCT | -0.228 |
| AACCTATC | -0.0357 |
| CTTGGCTC | -0.302 |
| AGCGGAGG | 0.00881 |
| GGCGTTAC | -0.179 |
| ACCTTAGG | -0.184 |
| ACGTAGGC | -0.135 |
| AGATACCG | 0.115 |

| Sequence | PBM E-score |
| --- | --- |
| CTTACATA | -0.0709 |
| CAATCGTC | -0.00975 |
| ACGAAGGG | -0.272 |
| CCGTCACA | 0.0352 |
| TACTTTCA | -0.0314 |
| CCCTACTC | 0.126 |
| AATCTACA | 0.0119 |
| AGTGACAC | -0.0319 |
| CCCCCTTA | -0.229 |
| AGCTTGAC | -0.0266 |
| GAATCACA | 0.193 |
| CAACTAAG | -0.0293 |
| GCTGCGCC | -0.125 |
| TTACGTAA | -0.395 |
| AGCCCTTC | -0.17 |
| CAGCTGCA | -0.0612 |
| CAAGTCTC | -0.206 |
| ACGTCCAC | -0.174 |
| GAACCAAA | -0.00151 |
| AGCATAAA | -0.0413 |
| AAAGGTAT | 0.0857 |
| AGCAGTCG | -0.0929 |
| ACCGAAAT | 0.165 |
| AGCCACCC | -0.0168 |
| AGCCGTAC | 0.0182 |

| Sequence | PBM E-score |
| --- | --- |
| CGAGCATC | 0.0131 |
| AGAACGAA | -0.0223 |
| AGCCGACT | -0.0192 |
| TCTGGGCA | 0.0661 |
| ACAAACAG | -0.017 |
| GATAAGAA | 0.0958 |
| TGAAGACA | -0.0366 |
| CGCGCCGA | 0.162 |
| CCCGGCCA | 0.242 |
| AGAAGCAC | -0.185 |
| ATCTAACG | -0.0549 |
| GGTGCTCA | -0.0879 |
| AATCTAGA | -0.233 |
| CGGACCGC | 0.344 |
| ACCTAAGC | -0.00804 |
| CGGATACC | 0.31 |
| AGATCAGA | -0.172 |
| CGTTCTCC | 0.103 |
| AGTAGGAC | -0.134 |
| TGCCACCA | -0.256 |
| ACGTTAAG | -0.18 |
| ACTGATAG | -0.194 |
| ACCCTTGA | -0.043 |
| ACAATGCG | 0.0246 |
| ACAGTGTA | -0.0466 |

| Sequence | PBM E-score |
| --- | --- |
| GAGTTGCC | 0.121 |
| CCTATGAG | -0.182 |
| AAGACGTC | -0.151 |
| AGATGACG | -0.166 |
| AGAGCGAC | -0.135 |
| AAAAACGC | 0.0456 |
| AACTGTCA | -0.0445 |
| ACCTGCAG | -0.284 |
| AGTTGCGA | -0.162 |
| CATCTCGC | -0.0549 |
| AGCTAGTC | -0.0629 |
| CCCTCGAG | -0.166 |
| TCACGTCA | -0.0775 |
| TTTGCAAA | -0.132 |
| GTCTAGCA | -0.165 |
| AGTGGGGC | -0.132 |
| GAAGTGCA | 0.00237 |
| AAGATAAT | 0.025 |
| GCGGTCAA | 0.125 |
| CCGCGGTC | 0.432 |
| GCCCTAGC | -0.199 |
| CATATTTA | 0.0589 |
| TAAAGTGA | -0.0775 |
| ACGGTAAA | 0.0442 |
| ACTCCAAG | -0.149 |

| Sequence | PBM E-score |
| --- | --- |
| TATACAAA | -0.107 |
| GTCGACAA | -0.014 |
| CCAATGAG | -0.174 |
| AGCTGTCG | -0.163 |
| ACAAGTTC | -0.0179 |
| ACCGAGAG | 0.109 |
| AACGGACC | 0.303 |
| CCGAAGAG | 0.129 |
| GGGCGTGA | 0.055 |
| GCCGCTTA | 0.114 |
| AGCCAGAT | -0.0083 |
| GGAACTAA | 0.296 |
| AATTACGC | -0.225 |
| CTGACGGC | 0.148 |
| ATCACAGA | -0.118 |
| AGGCAAAA | -0.00637 |
| CGCTCGCA | 0.161 |
| AAAACAGA | -0.0591 |
| ACTCTGTC | -0.158 |
| GCCACGAA | -0.152 |
| ATACTTTC | 0.0491 |
| CTTGATAA | -0.0707 |
| GTCAGCAC | -0.127 |
| TAATCCAA | -0.115 |
| CCCCAAAC | -0.0986 |

| Sequence | PBM E-score |
| --- | --- |
| CCCTCTCA | -0.358 |
| ACTCGAAG | -0.183 |
| CCCGAGTA | 0.162 |
| ACCCCCAT | -0.146 |
| ATATGTCC | 0.138 |
| CTTCCTAA | -0.211 |
| CCGCACTA | 0.241 |
| CCGAACCC | 0.136 |
| CGTGGGAG | -0.0135 |
| ACTAAGCA | -0.375 |
| CCTGCTGC | 0.00649 |
| GAAGTGTC | -0.0297 |
| ACTGAGTG | -0.145 |
| AGGTTTCA | 0.0193 |
| TACTATCA | 0.0314 |
| ACCCGCGT | 0.0485 |
| CATATACC | 0.0211 |
| GTTTCGCA | -0.151 |
| GGGGCAGA | -0.0181 |
| ATCAGAGA | -0.108 |
| CATTCTAA | -0.132 |
| AATCACTC | -0.313 |
| ACGCACCA | 0.00472 |
| CTGTTTGC | -0.0556 |
| CTACATGA | -0.0682 |

| Sequence | PBM E-score |
| --- | --- |
| CGATTGAA | -0.055 |
| AGGCCACG | 0.0493 |
| TAGCGCGA | 0.0544 |
| CGATAGTA | -0.0357 |
| ACGGGAAC | 0.33 |
| AGAAGGAA | 0.0224 |
| AGCGTTAA | -0.217 |
| ACGTGTTA | 0.0457 |
| AGATAGCA | -0.0269 |
| CTAGGCGA | -0.142 |
| GACTTTAC | 0.0726 |
| ATTGTTCA | -0.0393 |
| CCCCACTA | -0.00417 |
| CAGCATAC | -0.172 |
| GAGGTGCC | 0.00556 |
| GGGAATGA | 0.219 |
| GCCACTTA | -0.0589 |
| TACGACTA | -0.179 |
| ATCTATTG | -0.154 |
| AGACGCGG | 0.109 |
| GAGTTACC | 0.0158 |
| ACGGTTCA | -0.137 |
